According to PubChem BioAssay (NCATS):
Values joined by “and” are separate entries in the source; they are usually repeats but may differ in a detail not shown here. Equal entries are not always repeated. Inconclusive results, whose numbers are uncertain, are shown with a selection of clear calls. For part of these data: Potencies of inconclusive entries are doubtful fits and often do not repeat. Active and inactive are the calls of the source. The call rests on the fitted dose curve; in most records, active means well fitted curve in the direction sought with a large enough effect; inconclusive means small, poorly fitted or top-dose-only effect, or another doubt; inactive means no such curve, though single readings can be large; an effect the other way counts as inactive or inconclusive.

How the values were obtained:
[1] = P-glycoprotein substrates identified in KB-8-5-11 adenocarcinoma cell line, qHTS therapeutic library screen (AID 1346987); settings: activity change, negative = cytotoxicity: at 44.5 µM (top of the series); further: nearly all actives have a fitted effect of over 65% in size; further: potency means the concentration at half of the fitted maximal effect; on activity change, negative = cytotoxicity: on the % scale 0 is the no-effect control and ±100 the full control effect
Procedure, shortened: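 Steps: plate 500 KB-8-5-11 cells/well in DMEM + 10% FCS (colchicine removed); pin compounds in dose-response; incubate 72 h, 37 degree C, 5% CO2; add CellTiter-Glo, 5 min; read luminescence.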

[2] = system: Zika virus NS2B-NS3 protease (unlinked complex); test: Primary screen GU Rhodamine qHTS for Zika virus inhibitors: Unlinked NS2B-NS3 protease assay (AID 1347159); settings: Recombinant ZIKV NS2B-NS3 protease, Rhodamine110 substrate fluorescence; activity change, negative = inhibition: at 107 µM (top of the series); further: nearly all actives have a fitted effect of over 60% in size; further: potency means the concentration at half of the fitted maximal effect; on activity change, negative = inhibition: on the % scale 0 is the no-effect control and ±100 the full control effect
Procedure, shortened: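 Noncovalent NS2B hydrophilic domain/NS3 protease complex (25 nM final) in 10 mM Tris-HCl pH 8.0, 0.01% Tween 20, preincubated 15 min with compounds (up to 114 microM), then 1.5 microM Rhodamine110 substrate. Fluorescence change over 15 min fitted to 4-parameter Hill.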

[3] = Primary qHTS for inhibitors of nuclear receptor binding SET domain protein 2 (NSD2) in an isogenic RCH-ACV NSD2 p.E1099K mutant (9B) (AID 1645876); settings: activity change, negative = viability loss: at 44.9 µM (top of the series) unless noted; further: potency means the concentration at half of the fitted maximal effect; nearly all actives have a fitted effect of over 70% in size
[4] = system: C33A; test: Primary qHTS to identify gynecologic anti-cancer compounds using libraries of approved drugs and bioactive compounds (AID 1345084); settings: Gynecologic cancer cell panel viability, ATPlite luminescence, 48 h; series mostly up to 57.5 µM; further: nearly all actives have a fitted effect of over 55% in size; further: potency means the concentration at half of the fitted maximal effect
Procedure, shortened: (§1)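 Five-concentration response, 48 h; readout is ATP-driven luciferase luminescence.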

[5] = system: CAOV3; test: as above; settings: Gynecologic cancer cell panel viability, ATPlite luminescence, 48 h; series mostly up to 57.5 µM
Procedure, shortened: as §1

[6] = system: CASKI; test: as above; settings: Gynecologic cancer cell panel viability, ATPlite luminescence, 48 h; series mostly up to 57.5 µM
Procedure, shortened: as §1

[7] = system: Es-2; test: as above; settings: Gynecologic cancer cell panel viability, ATPlite luminescence, 48 h; series mostly up to 57.5 µM
Procedure, shortened: as §1

[8] = system: HeLa; test: as above; settings: Gynecologic cancer cell panel viability, ATPlite luminescence, 48 h; series mostly up to 57.5 µM
Procedure, shortened: as §1

[9] = system: Hek293T; test: as above; settings: Gynecologic cancer cell panel viability, ATPlite luminescence, 48 h, control line for the selectivity index; series mostly up to 57.5 µM
Procedure, shortened: as §1

[10] = system: JEG-3; test: as above; settings: Gynecologic cancer cell panel viability, ATPlite luminescence, 48 h; series mostly up to 57.5 µM
Procedure, shortened: as §1

[11] = system: OV90; test: as above; settings: Gynecologic cancer cell panel viability, ATPlite luminescence, 48 h; series mostly up to 57.5 µM
Procedure, shortened: as §1

[12] = system: PA-1; test: as above; settings: Gynecologic cancer cell panel viability, ATPlite luminescence, 48 h; series mostly up to 57.5 µM
Procedure, shortened: as §1

[13] = system: SKOV3; test: as above; settings: Gynecologic cancer cell panel viability, ATPlite luminescence, 48 h; series mostly up to 57.5 µM
Procedure, shortened: as §1

[14] = system: Tov-21-G; test: as above; settings: Gynecologic cancer cell panel viability, ATPlite luminescence, 48 h; series mostly up to 57.5 µM
Procedure, shortened: as §1

[15] = Primary qHTS for inhibitors of nuclear receptor binding SET domain protein 2 (NSD2) in an RCH-ACV wild type WT cells (2C) (AID 1645877); settings: activity change, negative = cell killing: at 44.9 µM (top of the series) unless noted; further: nearly all actives have a fitted effect of over 70% in size; further: potency means the concentration at half of the fitted maximal effect; on activity change, negative = cell killing: on the % scale 0 is the no-effect control and ±100 the full control effect
[16] = Primary fluorescence-based thiol-reactive (MSTI) qHTS assay for identification of artifact compounds. (AID 1845221);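 further: potency means the concentration at half of the fitted maximal effect; thiol-reactive compounds lower the probe fluorescence signal; nearly all actives have a fitted effect of over 65% in size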
Procedure, shortened: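 In PBS pH 7.4 with 2% DMSO, each compound met 4 uM MSTI for one hour at ambient temperature, shielded from light, before fluorescence detection.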

[17] = system: Tov112D; test: Primary qHTS to identify gynecologic anti-cancer compounds using libraries of approved drugs and bioactive compounds (AID 1345084); settings: Gynecologic cancer cell panel viability, ATPlite luminescence, 48 h; series mostly up to 57.5 µM; further: nearly all actives have a fitted effect of over 55% in size; further: potency means the concentration at half of the fitted maximal effect
Procedure, shortened: as §1

[18] = Primary qHTS for small molecule stabilizers of the endoplasmic reticulum resident proteome: Secreted ER Calcium Modulated Protein (SERCaMP) assay (AID 1508630); settings: SH-SY5Y GLuc-SERCaMP (Gaussia luciferase released on ER calcium loss) secretion, thapsigargin, luminescence; activity change, negative = inhibition: at 38.4 µM (top of the series) unless noted; further: on the % scale 0 is the no-effect control and ±100 the full control effect
Procedure, shortened: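 GLuc-SERCaMP-expressing SH-SY5Y cells, pretreated 16 h with compound, are challenged with thapsigargin to empty ER calcium stores; after 4 h, coelenterazine is added directly to the medium and luminescence is imaged.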

[19] = system: Zika virus NS2B-NS3 protease (linked construct); test: Primary screen NINDS Rhodamine qHTS for Zika virus inhibitors (AID 1347160); further: on the % scale 0 is the no-effect control and ±100 the full control effect; nearly all actives have a fitted effect of over 55% in size
Procedure, shortened: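 Purified NS2B-NS3 protease with the NS2B hydrophilic domain joined by a flexible linker (25 nM) in 10 mM Tris-HCl pH 8.0, 0.01% Tween 20, preincubated 15 min at RT with compound; Rhodamine110 peptide substrate 1.5 µM; fluorescence change over 15 min; 4-parameter Hill fit.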
Tags describe the fitted curve by direction and shape.

NC[C@@](O)(c1ccc(Cl)cc1)c1ccc(-c2cn[nH]c2)cc1
inactive: Potency [2]
inconclusive: Potency [5] 20 µM [cytotoxic, single point] | Potency [7] 35.5 µM [cytotoxic, single point] | Potency [10] 25.1 µM [cytotoxic, single point] | Potency [11] 31.6 µM [cytotoxic, single point]
active: Potency [1] 9.2 µM | Potency [3] 6.49 µM and 5.25 µM | Potency [4] 22.4 µM | Potency [6] 28.2 µM | Potency [8] 25.1 µM | Potency [9] 28.2 µM | Potency [12] 15.8 µM | Potency [13] 20 µM | Potency [14] 10 µM

CC(=O)Nc1cccc2c1c(Sc1ccc(Cl)cc1)c(C)n2CC(=O)O
inactive: Potency [1] | Potency [15]
inconclusive: Potency [2] 44.7 µM [inhibitor, partial curve] | Potency [16] 5.97 µM [inhibitor, partial curve] | Potency [4] 7.08 µM [cytotoxic, single point] | Potency [5] 8.91 µM [cytotoxic, single point] | Potency [6] 3.55 µM [cytotoxic, partial curve, poor fit] | Potency [8] 8.91 µM [cytotoxic, single point] | Potency [9] 7.08 µM [cytotoxic, single point] | Potency [11] 3.16 µM [cytotoxic, single point] | Potency [12] 7.08 µM [cytotoxic, single point] | Potency [14] 7.08 µM [cytotoxic, single point] | Potency [17] 8.91 µM [cytotoxic, single point]

CCCCc1nc(Cl)c(CO)n1Cc1ccc(-c2ccccc2-c2nn[nH]n2)cc1
inactive: Potency [18] | Potency [4] | Potency [5] | Potency [11] | Potency [17]

COc1ccc(CCC(=O)c2c(O)cc(O)cc2O[C@@H]2O[C@H](CO)[C@@H](O)[C@H](O)[C@H]2O)cc1
active: Potency [16] 10.3 µM
inactive: Potency [4] | Potency [12]
inconclusive: Potency [2] 39.8 µM [inhibitor, single point] | Potency [3] 14.2 µM [inhibitor, single point] | Potency [5] 17.8 µM [cytotoxic, single point] | Potency [7] 17.8 µM [cytotoxic, single point] | Potency [9] 10 µM [cytotoxic, single point] | Potency [13] 2 µM [rising, partial curve, poor fit]

COc1cc(CCc2cc(NC(=O)c3ccc(N4CC(C)NC(C)C4)cc3)n[nH]2)cc(OC)c1 (stereo not given)
inactive: Potency [6]
inconclusive: Potency [1] 29.1 µM [inhibitor, single point] | Potency [4] 31.6 µM [cytotoxic, single point] | Potency [5] 39.8 µM [cytotoxic, single point] | Potency [7] 39.8 µM [cytotoxic, single point] | Potency [8] 17.8 µM [cytotoxic, partial curve, poor fit] | Potency [9] 39.8 µM [cytotoxic, single point] | Potency [11] 39.8 µM [cytotoxic, single point] | Potency [12] 35.5 µM [cytotoxic, single point] | Potency [13] 14.1 µM [cytotoxic, partial curve, poor fit] | Potency [14] 25.1 µM [cytotoxic, single point]

CC(=O)O[C@@H]1[C@H](O[C@@H]2O[C@@H](CO)[C@H](O)[C@H]2O)[C@@H](O[C@@H]2O[C@@H](C)[C@H](O[C@@H]3OC[C@@H](O)[C@H](O)[C@H]3O)[C@@H](O)[C@H]2O)[C@H](OC(=O)[C@]23CCC(C)(C)C[C@H]2C2=CCC4[C@@]5(C)CC[C@H](O[C@@H]6O[C@H](C(=O)O)[C@@H](O)[C@H](O)[C@H]6O[C@@H]6O[C@H](CO)[C@H](O)[C@H](O)[C@H]6O)[C@@](C)(C=O)C5CC[C@@]4(C)[C@]2(C)CC3)O[C@@H]1C (stereo not given in full)
inactive: activity change, negative = inhibition [19] -19.7% [at 10.7 µM] | activity change, negative = cytotoxicity [4] 4.84% [at 6.55 µM] | activity change, negative = cytotoxicity [10] 11.6% [at 6.55 µM] | activity change, negative = cytotoxicity [11] 12.8% [at 6.55 µM] | activity change, negative = cytotoxicity [12] 11.1% [at 6.55 µM]
inconclusive: Potency [3] 3.45 µM [inhibitor, single point] | Potency [15] 3.07 µM [inhibitor, single point] | Potency [5] 6.31 µM [cytotoxic, single point]
